# Measurements from publication PMC4336329 (PLoS ONE, 2015).
# Out of some 310,000 compounds screened, about 14,000 (4.5%) showed an effect of 50% or more. The effect is printed as a negative number. The list shows a part of the results.
# Target: human ether-à-go-go-related gene (hERG) potassium channel (human, UniProt Q12809)
# Assay: primary screen, population patch clamp on CHO cells stably expressing hERG
# 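Note: peak tail current of the secondary pulse compared with the same well before compound.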
# human ether-à-go-go-related gene (hERG) potassium channel, sequence (Q12809 whole entry, looked up): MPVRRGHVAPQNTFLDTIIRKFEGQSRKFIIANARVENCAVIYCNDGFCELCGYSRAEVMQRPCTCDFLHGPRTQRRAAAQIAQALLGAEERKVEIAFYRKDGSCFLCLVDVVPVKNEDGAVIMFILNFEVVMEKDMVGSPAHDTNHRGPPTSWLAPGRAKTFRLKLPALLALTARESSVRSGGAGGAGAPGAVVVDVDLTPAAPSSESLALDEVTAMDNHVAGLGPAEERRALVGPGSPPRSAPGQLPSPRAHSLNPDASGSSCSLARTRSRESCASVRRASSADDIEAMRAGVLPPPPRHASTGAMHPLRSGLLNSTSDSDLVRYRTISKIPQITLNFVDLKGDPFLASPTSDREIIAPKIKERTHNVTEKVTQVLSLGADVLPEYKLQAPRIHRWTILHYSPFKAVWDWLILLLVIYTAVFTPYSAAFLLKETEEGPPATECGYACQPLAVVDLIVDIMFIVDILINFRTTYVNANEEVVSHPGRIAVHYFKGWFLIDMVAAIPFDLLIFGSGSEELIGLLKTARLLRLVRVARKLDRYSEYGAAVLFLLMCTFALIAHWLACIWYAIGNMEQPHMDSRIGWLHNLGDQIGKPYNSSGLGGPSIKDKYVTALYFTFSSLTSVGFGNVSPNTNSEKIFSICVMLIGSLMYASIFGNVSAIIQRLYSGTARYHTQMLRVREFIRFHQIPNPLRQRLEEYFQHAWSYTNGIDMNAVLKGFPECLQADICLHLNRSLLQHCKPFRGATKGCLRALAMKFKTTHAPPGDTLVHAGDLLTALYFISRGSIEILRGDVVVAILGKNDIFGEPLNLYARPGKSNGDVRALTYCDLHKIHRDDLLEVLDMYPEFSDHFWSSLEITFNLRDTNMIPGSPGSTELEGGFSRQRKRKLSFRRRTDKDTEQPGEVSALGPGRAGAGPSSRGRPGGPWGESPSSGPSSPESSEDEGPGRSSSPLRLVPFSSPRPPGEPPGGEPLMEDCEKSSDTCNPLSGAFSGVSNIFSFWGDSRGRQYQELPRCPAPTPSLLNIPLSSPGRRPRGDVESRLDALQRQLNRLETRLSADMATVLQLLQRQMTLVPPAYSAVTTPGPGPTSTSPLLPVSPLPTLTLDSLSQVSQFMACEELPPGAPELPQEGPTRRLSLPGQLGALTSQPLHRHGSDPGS
row,SMILES,"hERG current change (%, negative = inhibition) at 10uM [%]"
1,COc1cccc(CN(C)CC2CCCN(CCc3ccc(Cl)cc3)C2)c1OC (stereo not shown),-74.5
2,CCCc1nn(C)c(C(=O)Nc2cccc(C)c2)c1Cl,15.5
3,O=C(Nc1ccccc1C(=O)NCc1ccccc1)c1ccco1,-17
4,Cc1cc([N+](=O)[O-])nn1Cc1c(F)c(F)c(F)c(F)c1F,-5.31
5,CCC(NC(=O)CNC(=O)CNC(=O)c1ccc(Cl)cc1Cl)c1ccc(C)cc1 (stereo not shown),22.2
6,COc1ccc2[nH]c3c(=S)nc[nH]c3c2c1,27.3
7,O=C(O)C1CCCCC1C(=O)Nc1ccccn1 (stereo not shown),13.8
8,Nc1nc(N2CCOCC2)nc(N(c2ccccc2)c2ccccc2)n1,1.42
9,CCOC(=O)CN1C(=O)C(=O)N(Cc2c(Cl)cccc2Cl)C1=O,18.4
10,COC(=O)c1cc(COc2ccc3c4c(c(=O)oc3c2)CCCC4)c(C)o1,-2.59
11,Cc1cccc(CCNC(=O)CCc2c(C)nc3ncnn3c2C)c1,-31.7
12,CC(C)c1ccc(NS(=O)(=O)c2ccc(Cl)nc2)cc1,-4.03
13,COc1ccc(OCC(=O)NNC(=O)C(=O)Nc2ccc(C)cc2)cc1,11.4
14,COc1ccccc1NC(=O)C(C)OC(=O)C1CCC(C(C)(C)C)CC1 (stereo not shown),7.47
15,COc1ccc(CN2CCN(c3ncccn3)CC2)c(C)c1C,-35.9
16,COc1ccc2cc(C)c3nnc(SCC(=O)Nc4nc(-c5ccc(F)cc5)cs4)n3c2c1,-1.62
17,CCCSc1ccc2nc(NC(=O)OC)[nH]c2c1,11
18,CCC(Sc1nnc2c3ccccc3n(CC)c2n1)C(=O)Nc1sc2c(c1C#N)CCCC2 (stereo not shown),-6.77
19,CCOC(=O)c1cc2occc2n1CC(=O)NCCOC,-2.25
20,CCCc1cc(N2CCCC(C(=O)Nc3c(OC)cccc3OC)C2)n2ncnc2n1 (stereo not shown),-10.7
21,Cc1nc2sccn2c(=O)c1Br,15.4
22,O=C(Cc1c[nH]c2ccccc12)N/N=C/c1cccc(F)c1,4.27

row,SMILES,"hERG current change (%, negative = inhibition) at 10uM [%]"
1,CC(NC(=O)CNC(=O)c1sc2ccccc2c1Cl)c1ccc(S(N)(=O)=O)cc1 (stereo not shown),-34.2
2,O=C(NCc1cccs1)c1cc2c(s1)-c1ccccc1OC2,1.42
3,O=C(CN1C(=O)c2cccc3cccc(c23)C1=O)N1CCCCCC1,9.58
4,O=C(O)c1ccc(NC(=O)c2ccc3c(c2)C(=O)N(CC2CCCO2)C3=O)cc1 (stereo not shown),13
5,CC1Cc2nc(SCC(=O)Nc3ccc4c(c3)OCO4)n(Cc3ccccc3)c(=O)c2S1 (stereo not shown),-12.7
6,CC(C)n1c(C(O)c2ccc3c(c2)OCO3)nc2ccccc21 (stereo not shown),0.158
7,C/C(=C\c1cc(C(=O)O)c(C)o1)CO,12.9
8,Cc1ccc(NC(=O)NNC(=O)c2cc3ccccc3cc2O)cc1C,23.7
9,Cl.O=C(NCCc1ccccn1)c1cc(-c2cccc3ccccc23)nc2ccccc12,-27.1
10,CCOC(=O)CSc1nnc(Cc2cc(=O)[nH]c(=O)[nH]2)n1-c1ccc(Cl)cc1,8.02
11,CC(C)OC(=O)CSc1nnc2c3ccccc3n(C)c2n1,-1.35
12,CCN(CC)C(=O)C1CCN(S(=O)(=O)c2ccc(-n3cnnn3)cc2)CC1,-30
13,O=C(NCCc1ccco1)c1cc(COc2cccc(C(F)(F)F)c2)on1,2.44
14,C[C@H](NC(=O)c1ccccc1)C(=O)Nc1nc(-c2ccccn2)cs1,19.2
15,CC(C)(C)NC(=O)CSc1nc2ccc(NC(=O)CSc3nnnn3Cc3ccccc3)cc2s1,6.17
16,Cc1ccc(C(=O)NCc2occc2C(=O)O)o1,10.2
17,CCNC(=O)C1CC(=O)N(CCCc2ccccc2)C(=Nc2ccccc2)S1 (stereo not shown),11.4
18,COc1cccc(COC(=O)c2ccc3c(c2)NC(=O)C(C)S3)c1OC (stereo not shown),18.4
19,O=C(COc1cccc(NC(=O)c2ccccc2)c1)c1ccc(F)cc1,-26
20,O=C(CSc1nnnn1Cc1ccccc1)Nc1cccc(F)c1,7.09
21,Cc1ccc(C(=O)N2CCCC2)c(F)c1F,-14.2
